According to the supplement of paper PMC12217912:
The other results are listed elsewhere or left out. The full chains were built here from the parent and the listed change. Values near 0.05 are background.

B1: TEV protease; numbered along this chain (parent)
chain: MGESLFKGPRDYNPISSSICHLTNESDGHTTSLYGIGFGPFIITNKHLFRRNNGTLVVQSLHGVFKVKDTTTLQQHLVDGRDMIIIRMPKDFPPFPQKLKFREPQREERICLVTTNFQTKSMSSMVSDTSCTFPSGDGIFWKHWIQTKDGQCGSPLVSTRDGFIVGIHSASNFTNTNNYFTSVPKNFMELLTNQEAQQWVSGWRLNADSVLWGGHKVFMVKPEEPFQPVKEATQL

Variants of: B1
Assay: raw area under fraction-flipped curve 0-4 h after induction (AUC4h, not background-subtracted), DNA-recorder readout of cleavage of the substrate (dimensionless); higher = more cleavage of the substrate by the protease variant
Conditions: temperature: 34 °C; time window: 0-4 h after rhamnose induction
Method: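 In vivo DNA recorder in E. coli TOP10(DE3) ΔrhaA at 34 °C. Each TEVp single-site mutant (parent TEVp 0) is paired with a single-site variant of the 7-mer TEVs (canonical ENLYFQ|S). The substrate sits between flexible linkers in a Bxb1-sfGFP-TEVs-SsrA fusion, so cleavage stabilises Bxb1 and speeds flipping of a recombination array, read by NGS. The value is the raw area under the fraction-flipped curve over 0-4 h after rhamnose induction (AUC4h), with ≥20 reads per time point. It is not background-subtracted; inactive controls average about 0.047.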
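Further: Bxb1 expression induced with 0.2% (w/v) L-rhamnose at OD600 near 0.5, cultures sampled hourly, flipped fraction per protease–substrate barcode pair counted by paired-end Illumina sequencing.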

Variant | area with substrate EALYFQS | area with substrate ECLYFQS | area with substrate EDLYFQS | area with substrate EELYFQS | area with substrate EFLYFQS | area with substrate EILYFQS | area with substrate EKLYFQS | area with substrate ELLYFQS | area with substrate EMLYFQS | area with substrate EPLYFQS | area with substrate ERLYFQS | area with substrate ESLYFQS | area with substrate ETLYFQS | area with substrate EVLYFQS | area with substrate EWLYFQS | area with substrate EYLYFQS | area with substrate EGLYFQS | area with substrate EHLYFQS | area with substrate EQLYFQS
MGESLFKGPRDYNPISSSICHLTNESDGHTTSLYGIGFGPFIITNKHLFRRNNGTLVVQSLHGVFKVKDTTTLQQHLVDGRDMIIIRMPKDFPPFPQKLKFREPQREERICLVTTNFQTKSMSSMVSDTSCTFISGDGIFWKHWIQTKDGQCGSPLVSTRDGFIVGIHSASNFTNTNNYFTSVPKNFMELLTNQEAQQWVSGWRLNADSVLWGGHKVFMVKPEEPFQPVKEATQL [P134I] | 0.126 | 0.0951 | 0.104 | 0.0927 | 0.0759 | 0.0706 | 0.107 | 0.0925 | 0.0964 | 0.109 | 0.0856 | 0.0978 | 0.0665 | 0.0867 | 0.111 | 0.099 |  |  | 
MGESLFKGPRDYNPISSSICHLTNESDGHTTSLYGIGFGPFIITNKHLFRRNNGTLVVQSLHGVFKVKDTTTLQQHLVDGRDMIIIRMPKDFPPFPQKLKFREPQREERICLVTTNFQTKSMSSMSSDTSCTFPSGDGIFWKHWIQTKDGQCGSPLVSTRDGFIVGIHSASNFTNTNNYFTSVPKNFMELLTNQEAQQWVSGWRLNADSVLWGGHKVFMVKPEEPFQPVKEATQL [V126S] | 0.146 | 0.111 | 0.0794 | 0.148 | 0.112 | 0.105 |  | 0.098 | 0.0979 | 0.138 | 0.105 | 0.11 | 0.134 | 0.117 | 0.0993 | 0.113 | 0.112 | 0.122 | 
MGESLFKGPRDYNPISSSICHLTNESDGHTTSLYGIGFGPFIITNKHLFRRNNGTLVVQSLHGVFKVKDTTTLQQHLVDGRDMIIIRMPKDFPPFPQKLKFREPQREERICLVTTNFQTKRMSSMVSDTSCTFPSGDGIFWKHWIQTKDGQCGSPLVSTRDGFIVGIHSASNFTNTNNYFTSVPKNFMELLTNQEAQQWVSGWRLNADSVLWGGHKVFMVKPEEPFQPVKEATQL [S121R] | 0.145 | 0.111 |  | 0.141 |  | 0.0656 | 0.133 |  | 0.129 | 0.14 | 0.0942 | 0.131 |  |  | 0.129 |  | 0.0915 | 0.125 | 0.0937
MGESLFKGPRDYNPISSSICHLTNESDGHTTSLYGIGFGPFIITNKHLFRRNNGTLVVQSLHGVFKVKDTTTLQQHLVDGRDMIIIRMPKDFPPFPQKLKFREPQREERICLVTTNFQTKSMSSMVSDTSCHFPSGDGIFWKHWIQTKDGQCGSPLVSTRDGFIVGIHSASNFTNTNNYFTSVPKNFMELLTNQEAQQWVSGWRLNADSVLWGGHKVFMVKPEEPFQPVKEATQL [T132H] | 0.0698 | 0.0704 |  | 0.101 |  | 0.0701 |  | 0.0752 |  |  |  |  | 0.0845 |  |  | 0.0715 | 0.0653 |  | 
MGESLFKGPRDYNPISSSICHLTNESDGHTTSLYGIGFGPFIITNKHLFRRNNGTLVVQSLHGVFKVKDTTTLQQHLVDGRDMIIIRMPKDFPPFPQKLKFREPQREERICLVTTNFQTKSMSSMVSDTSCLFPSGDGIFWKHWIQTKDGQCGSPLVSTRDGFIVGIHSASNFTNTNNYFTSVPKNFMELLTNQEAQQWVSGWRLNADSVLWGGHKVFMVKPEEPFQPVKEATQL [T132L] | 0.0877 | 0.0796 | 0.135 | 0.109 | 0.0975 | 0.088 | 0.0765 | 0.0854 | 0.0778 | 0.0967 |  | 0.092 |  | 0.0833 |  |  |  | 0.0975 | 
MGESLFKGPRDYNPISSSICHLTNESDGHTTSLYGIGFGPFIITNKHLFRRNNGTLVVQSLHGVFKVKDTTTLQQHLVDGRDMIIIRMPKDFPPFPQKLKFREPQREERICLVTTNFQTKSMSSMVSDTSCWFPSGDGIFWKHWIQTKDGQCGSPLVSTRDGFIVGIHSASNFTNTNNYFTSVPKNFMELLTNQEAQQWVSGWRLNADSVLWGGHKVFMVKPEEPFQPVKEATQL [T132W] | 0.05 | 0.0544 | 0.0586 | 0.0612 |  | 0.0685 |  |  |  | 0.064 |  | 0.0665 |  | 0.051 |  |  | 0.0715 | 0.0684 | 
MGESLFKGPRDYNPISSSICHLTNESDGHTTSLYGIGFGPFIITNKHLFRRNNGTLVVQSLHGVFKVKDTTTLQQHLVDGRDMIIIRMPKDFPPFPQKLKFREPQREERICLVTTNFQTKSMSSMVSDTSCPFPSGDGIFWKHWIQTKDGQCGSPLVSTRDGFIVGIHSASNFTNTNNYFTSVPKNFMELLTNQEAQQWVSGWRLNADSVLWGGHKVFMVKPEEPFQPVKEATQL [T132P] | 0.0621 | 0.0661 |  |  |  |  |  |  | 0.0833 |  | 0.0669 | 0.0634 |  | 0.0629 | 0.0624 |  |  |  | 0.0652
MGESLFKGPRDYNPISSSICHLTNESDGHTTSLYGIGFGPFIITNKHLFRRNNGTLVVQSLHGVFKVKDTTTLQQHLVDGRDMIIIRMPKDFPPFPQKLKFREPQREERICLVTTNFQTKSCSSMVSDTSCTFPSGDGIFWKHWIQTKDGQCGSPLVSTRDGFIVGIHSASNFTNTNNYFTSVPKNFMELLTNQEAQQWVSGWRLNADSVLWGGHKVFMVKPEEPFQPVKEATQL [M122C] | 0.111 | 0.1 | 0.101 | 0.144 | 0.128 | 0.0964 | 0.116 | 0.0996 | 0.127 | 0.13 | 0.07 | 0.103 |  | 0.127 | 0.121 | 0.0965 | 0.0982 | 0.107 | 0.127
MGESLFKGPRDYNPISSSICHLTNESDGHTTSLYGIGFGPFIITNKHLFRRNNGTLVVQSLHGVFKVKDTTTLQQHLVDGRDMIIIRMPKDFPPFPQKLKFREPQREERICLVTTNFQTKSDSSMVSDTSCTFPSGDGIFWKHWIQTKDGQCGSPLVSTRDGFIVGIHSASNFTNTNNYFTSVPKNFMELLTNQEAQQWVSGWRLNADSVLWGGHKVFMVKPEEPFQPVKEATQL [M122D] | 0.128 | 0.113 |  |  |  | 0.0847 | 0.11 | 0.0969 | 0.0695 |  | 0.0887 | 0.102 |  | 0.0791 | 0.101 |  | 0.0881 | 0.126 | 0.14
MGESLFKGPRDYNPISSSICHLTNESDGHTTSLYGIGFGPFIITNKHLFRRNNGTLVVQSLHGVFKVKDTTTLQQHLVDGRDMIIIRMPKDFPPFPQKLKFREPQREERICLVTTNFQTKSSSSMVSDTSCTFPSGDGIFWKHWIQTKDGQCGSPLVSTRDGFIVGIHSASNFTNTNNYFTSVPKNFMELLTNQEAQQWVSGWRLNADSVLWGGHKVFMVKPEEPFQPVKEATQL [M122S] | 0.15 | 0.114 |  |  |  |  | 0.132 | 0.135 | 0.173 |  |  | 0.118 | 0.139 | 0.118 | 0.0983 | 0.15 |  |  | 0.16
